About 4,700 (1.2%) of roughly 390,000 compounds were called active. This list was built around the results that the source calls inconclusive (neither active nor inactive); the mix of calls is not that of the screen. The call rests on the fitted dose curve; in most records, active means well fitted inhibition curve with a large enough effect; inconclusive means small, poorly fitted or top-dose-only effect, or another doubt; inactive means no such curve, though single readings can be large or run the other way. Potencies of inconclusive entries are doubtful fits and often do not repeat.
Target: DNA polymerase eta (Homo sapiens) (UniProt Q9Y253)
Chain of UniProt Q9Y253 (Q9Y253 whole entry, looked up): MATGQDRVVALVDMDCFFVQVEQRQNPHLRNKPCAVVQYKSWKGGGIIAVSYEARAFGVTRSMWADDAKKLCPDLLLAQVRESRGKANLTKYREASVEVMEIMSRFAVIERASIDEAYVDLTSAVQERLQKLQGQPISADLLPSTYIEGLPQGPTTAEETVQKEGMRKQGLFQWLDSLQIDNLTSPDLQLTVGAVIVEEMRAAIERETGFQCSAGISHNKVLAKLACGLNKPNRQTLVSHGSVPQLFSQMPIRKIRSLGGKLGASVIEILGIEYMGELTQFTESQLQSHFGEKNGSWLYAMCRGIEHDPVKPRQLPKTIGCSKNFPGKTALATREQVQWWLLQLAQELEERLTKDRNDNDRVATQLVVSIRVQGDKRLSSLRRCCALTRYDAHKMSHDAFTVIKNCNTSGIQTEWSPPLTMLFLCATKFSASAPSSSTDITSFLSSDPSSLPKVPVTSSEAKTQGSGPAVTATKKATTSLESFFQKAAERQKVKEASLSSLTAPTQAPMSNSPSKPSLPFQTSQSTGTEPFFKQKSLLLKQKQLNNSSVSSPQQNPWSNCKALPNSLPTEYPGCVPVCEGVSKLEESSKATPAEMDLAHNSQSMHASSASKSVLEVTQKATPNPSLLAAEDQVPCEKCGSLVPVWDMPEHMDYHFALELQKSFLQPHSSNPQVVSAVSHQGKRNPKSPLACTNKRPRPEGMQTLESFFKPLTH
Experiment: qHTS for Inhibitors of Polymerase Eta
Settings: recombinant Pol eta, fluorescent DNA replication assay; series mostly up to 114 µM; activity change, negative = inhibition: at the top concentration
Method in brief: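 Pol eta at 10 nM preincubated with compounds 15 min at room temperature; reaction started with fluorescent substrate (50 nM final) and read kinetically at 0 and 10 min.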
On the % scale 0 is the no-effect control and ±100 the full control effect; potency means the concentration at half of the fitted maximal effect; tags describe the fitted curve by direction and shape.

Structure (SMILES) | Potency | activity change, negative = inhibition
O=C(CCCn1c(=O)c2sccc2n(CC(=O)NCc2ccco2)c1=O)NCc1ccco1 | active: 79.4 µM | 
CCSc1nnc(NC(=O)C2Cc3ccccc3CN2S(=O)(=O)CC)s1 (configuration not stated) | active: 56.2 µM | 
N#CC1=C(N)N(c2ccccc2Sc2ccccc2)C(=O)C1 | inconclusive: 20 µM [inhibitor, partial curve, poor fit] | 
COCC(=O)N(C)C[C@H]1Oc2ncc(C#C[C@H](C)O)cc2C(=O)N([C@@H](C)CO)C[C@H]1C | inconclusive: 35.5 µM [inhibitor, single point] | 
O=C(NC(=S)Nc1c(Cl)ccc2nsnc12)c1ccco1 |  | inactive: -4.5%
CCS(=O)(=O)c1cccc(C(=O)Nc2ccc(-c3nc4ccccc4s3)c(O)c2)c1 | inconclusive: 89.1 µM [inhibitor, single point] | 
O=C(Nc1ncc(Cc2ccccc2)s1)c1cccs1 | inconclusive: 1 µM [inhibitor, partial curve, poor fit] | 
O=C(COC(=O)c1cccc(S(=O)(=O)N2CCN(c3ccccc3)CC2)c1)NCc1ccco1 | active: 8.91 µM | 
Cc1ccc(C)c(N2CCN(C(=O)c3cnn(-c4ccccc4Cl)c3C3CCN(C(=O)OC(C)(C)C)CC3)CC2)c1 |  | inactive: -20.2%
COc1ccc(-c2nc(N)n(C(=O)c3ccc(C)cc3)n2)cc1 |  | inactive: -10%
NS(=O)(=O)c1ccc(-c2ccc(C=O)o2)cc1 |  | inactive: -8.87%
Cc1ccc(-c2cc(C(=O)Nc3cc(C(=O)O)ccc3C)c3ccccc3n2)cc1 | inconclusive: 39.8 µM [inhibitor, partial curve, poor fit] | 
O=C(Nc1ccc2oc(-c3cccnc3)nc2c1)c1ccc2c(c1)OCCO2 | inconclusive: 56.2 µM [inhibitor, partial curve, poor fit] | 
COc1cccc(CNC(=O)C(C)n2c(=O)cc(-c3ccccc3)c3c(C)nn(C)c32)c1 (configuration not stated) |  | inactive: -9.22%
O=C(CN(c1ccccc1)S(=O)(=O)c1ccccc1)NCCSCc1ccco1 | inconclusive: 14.1 µM [inhibitor, partial curve, poor fit] | 
COc1cc(/C=C2/C(C)=C(C#N)c3nc(N)c(C#N)c(C)c32)ccc1OCC(=O)O | active: 17.8 µM | 
CSc1nc(SCC(=O)O)c2sc3nc(-c4ccccc4)c4c(c3c2n1)CCC4 | inconclusive: 8.91 µM [inhibitor, full curve, poor fit] | 
NNC(=O)c1cc(O)c(O)c(O)c1 |  | inactive: -0.568%
CS(=O)(=O)NCCSCc1ccco1 | active: 70.8 µM | 
Cc1cc(OC(C)C(=O)NCc2ccccn2)c2c(C)c(Cc3ccccc3)c(=O)oc2c1 (configuration not stated) | inconclusive: 44.7 µM [inhibitor, partial curve] | 
COc1ccc(CCNc2c3ccccc3nc3ccccc23)cc1OC | inconclusive: 15.8 µM [inhibitor, full curve, poor fit] | 

Structure (SMILES) | Potency | activity change, negative = inhibition
O=C(Nc1ccc(-c2noc(CCc3ccccc3)n2)cc1)c1ccco1 | inconclusive: 25.1 µM [inhibitor, partial curve] | 
CCN(C(=O)C1CCCN(c2nc(-c3ccc(OC)cc3)no2)C1)c1ccccc1F (configuration not stated) | inconclusive: 79.4 µM [inhibitor, partial curve, poor fit] | 
COc1ccc(NC(=O)C2CCCN(c3nnc(C)c4c(C)n(-c5ccccc5)nc34)C2)cc1Cl (configuration not stated) | active: 35.5 µM | 
COCCOC(=O)c1c(-c2ccccc2)c(-c2ccccc2)nn(C)c1=O |  | inactive: -2.13%
O=C(Nc1nnc(S(=O)(=O)N2CCc3ccccc32)s1)c1cccc(Cl)c1 | active: 89.1 µM | 
NC(=O)c1c(NC(=O)c2cc3ccccc3o2)sc2c1CCC2 | inconclusive: 12.6 µM [inhibitor, full curve, poor fit] | 
COc1cccc(/C=C2/CCC(CN(C)C)C2=O)c1 (configuration not stated) | inconclusive: 31.6 µM [inhibitor, partial curve, poor fit] | 
CCS(=O)(=O)C1=NSC2=NC(=O)/C(=C\c3ccc(OC(=O)c4ccco4)c(OC)c3)C(=N)N21 | inconclusive: 50.1 µM [inhibitor, partial curve] | 
COc1ccc2c(c1)c(=O)c(C(=O)c1ccc(F)cc1)cn2CC(=O)Nc1ccc2c(c1)OCO2 |  | inactive: -15.8%
CCOC(=O)c1c(NC(=O)CSc2nnnn2-c2ccccc2)sc2c1CCC(C)C2 (configuration not stated) |  | inactive: -21.9%
O=C(COc1ccc2ccccc2c1)Nc1ccc(Cc2ccncc2)cc1 | inconclusive: 50.1 µM [inhibitor, partial curve] | 
N#Cc1c(-c2ccco2)cc(-c2ccccn2)nc1N | inconclusive: 12.6 µM [inhibitor, partial curve] | 
COc1cc2ccccc2cc1C(=O)NC(=S)Nc1ccc(C(=O)O)cc1 | active: 50.1 µM | 
CCCc1cc(-c2nc(N)ncc2-c2ccc3c(c2)OCCCO3)c(O)cc1OC | inconclusive: 44.7 µM [inhibitor, partial curve, poor fit] | 
CCN(CC(=O)NC1CCS(=O)(=O)C1)S(=O)(=O)c1cccc(C(C)=O)c1 (configuration not stated) | inconclusive: 56.2 µM [inhibitor, partial curve, poor fit] | 
CCOC(=O)N1CCN(c2ccc(S(=O)(=O)N(Cc3ccccc3)Cc3ccccc3)cn2)CC1 | inconclusive: 39.8 µM [inhibitor, partial curve, poor fit] | 
Cc1cc(C)c(C(=O)C2OC(=O)C(C)(C)C(=O)C2(C)C)c(C)c1 (configuration not stated) | inconclusive: 89.1 µM [inhibitor, partial curve, poor fit] | 
CCOc1cc(Br)c(Br)c(C=Nc2ccc(NC(C)=O)cc2)c1O | inconclusive: 3.16 µM [inhibitor, full curve, poor fit] | 
COc1ccc(/C=C2\SC(=S)N(CCC(=O)N3CCCCC3CCO)C2=O)cc1 (configuration not stated) | inconclusive: 25.1 µM [inhibitor, full curve] | 
Cc1ccc(-c2nnc(Nc3ccc4c(c3)OCO4)c3ccccc23)cc1S(N)(=O)=O | inconclusive: 22.4 µM [inhibitor, partial curve, poor fit] | 
CC(NCc1ccc(F)cc1)C(=O)Nc1cc(S(=O)(=O)N2CCCCC2)ccc1Cl (configuration not stated) | inconclusive: 15.8 µM [inhibitor, partial curve, poor fit] | 

Reference: PubChem BioAssay AID588591 (National Center for Advancing Translational Sciences (NCATS), 2011)
